Test results published in the supplement of paper PMC3334620.
The full ranking holds about 33,000 sequences; the median of “E-score (-0.5 to 0.5)” is about -0.054, and the highest 2% start at about 0.35. The list shows a part of the results.

Biological target: T1, Stb5 (UniProt P38699)
T1 sequence: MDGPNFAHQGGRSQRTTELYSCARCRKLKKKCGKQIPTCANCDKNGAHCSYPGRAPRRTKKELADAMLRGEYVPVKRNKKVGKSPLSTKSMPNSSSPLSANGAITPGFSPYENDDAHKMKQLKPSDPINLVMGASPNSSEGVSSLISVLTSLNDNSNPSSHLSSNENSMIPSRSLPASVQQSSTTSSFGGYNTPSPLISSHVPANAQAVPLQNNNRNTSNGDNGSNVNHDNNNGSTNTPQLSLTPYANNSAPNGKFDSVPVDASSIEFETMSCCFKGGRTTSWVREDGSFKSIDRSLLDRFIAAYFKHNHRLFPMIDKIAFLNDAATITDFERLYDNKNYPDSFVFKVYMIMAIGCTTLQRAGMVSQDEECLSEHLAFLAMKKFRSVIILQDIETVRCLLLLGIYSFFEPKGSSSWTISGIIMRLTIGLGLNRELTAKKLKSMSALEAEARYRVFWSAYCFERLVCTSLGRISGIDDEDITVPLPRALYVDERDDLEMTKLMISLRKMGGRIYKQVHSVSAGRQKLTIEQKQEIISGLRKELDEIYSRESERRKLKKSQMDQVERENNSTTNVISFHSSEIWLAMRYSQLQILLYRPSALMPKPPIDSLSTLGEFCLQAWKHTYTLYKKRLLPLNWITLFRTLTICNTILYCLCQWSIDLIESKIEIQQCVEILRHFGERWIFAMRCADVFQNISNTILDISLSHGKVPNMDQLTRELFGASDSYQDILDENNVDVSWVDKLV
Assay: PBM E-score (8-mer binding enrichment) (E-score (-0.5 to 0.5)); higher = stronger / more preferred TF binding; most listed sequences are background and not binding sites
Conditions: protein concentration: 200 nM; construct: GST-full length
In short: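 PURExpress in vitro transcription/translation supplied GST-tagged yeast transcription factors, either full-length or DNA-binding domain. Applied at about 100-200 nM to universal all-10-mer Agilent arrays double-stranded by primer extension, the bound protein was detected with fluorescent anti-GST. E-scores, modified Wilcoxon-Mann-Whitney statistics, were given by the Universal PBM Analysis Suite to ungapped eight-base words pooled with their reverse complements after masliner normalisation.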

Sequence	PBM E-score
ATTACTAG	0.165
GAAGGGGA	-0.287
ACATGGGA	0.0704
GGCTTGTA	-0.0193
CCCGTAAA	0.142
AGGCTCCA	-0.215
CATATTAG	0.0822
GACCTTCC	-0.0223
GACCGGTC	0.316
GTATGTAA	-0.0466
CACAATTA	-0.173
ACACGGAC	0.286
GATAAGCC	0.0935
ACCCACCG	0.177
CCGCTCCA	0.29
GTAATCAC	0.128
AGCGCACA	-0.0927
CGTAGTTA	0.178
ATCGGGAA	0.306
CACGCGTG	-0.116
TACCCAGA	-0.292
CCGATCAG	0.277
CACCGAAC	0.366
ACGTTAAT	0.00158
CCCCGTTC	0.313

Sequence	PBM E-score
AACCGTAC	-0.09
GGCGCGAA	0.134
ATATATTA	0.208
GTGAACAC	0.0268
AGTGACCA	-0.195
TCTTAGCA	-0.134
AGTAAGTG	-0.0494
ACACTGTG	-0.233
AAAGGGGA	-0.128
TCCGAACA	0.239
ACACGCAC	-0.168
CGCGCGAC	-0.00587
CAGAAGGG	-0.202
ACGCCACG	-0.0375
ATCCGCCC	0.218
GACACACA	-0.0713
CCGCCAGA	0.266
CAGCAGCC	-0.193
ACGGTCAC	0.0418
AACACCTA	0.211
CACGCAAC	-0.0613
CCCATGCC	0.0152
GCTACCCC	0.0894
CGTACCAC	-0.0428
CCGTGAGG	0.142

Sequence	PBM E-score
CGATACTC	0.218
CCCAGGCA	-0.24
AACGGCCG	0.264
AACCTCTC	-0.196
AGACGTAC	-0.201
TGTTAGAA	-0.13
ACACCTAT	-0.00164
GGCTGGGA	-0.162
GTATAAAA	0.21
CATCCCGA	0.1
GCCTCTCA	-0.162
GGTTTCAC	0.0622
GTAACTTA	-0.0488
TCGTTAGA	-0.147
ACAACATG	-0.227
ATGCGGAG	0.184
AGTTCTAT	-0.0685
ACGAGTGA	-0.179
CTGTTGGC	-0.127
CATGCCAG	-0.216
GAAGGTGC	-0.0533
GTTCTCTA	-0.1
CGCTTAGA	-0.0677
GATATCTA	-0.155
CATCGCCA	0.0921

Sequence	PBM E-score
AAACCCTT	0.0483
AACTGGCC	-0.143
CCAAGATA	0.0335
AGCGTTAT	-0.0568
ACGATGTC	-0.172
ACATTTAG	-0.0615
TCGATCGA	-0.148
GCTCGCGA	0.033
GATAGGTA	-0.0734
AATCCTGG	-0.109
CGCCGTGC	0.244
CCCACGAA	-0.265
CTTAGGAC	-0.206
AGTGTTTG	-0.255
TACTAGCA	-0.277
TCCAGTAA	-0.256
CGGCTGAC	-0.00958
CTTCTCGC	-0.0222
AGCTACAC	-0.174
AGCGAACG	0.0119
CGGAGCCG	0.0804
CGGTTGCA	0.0584
ACGAATCG	0.0406
GATACAGA	-0.0464
ATCATGAG	-0.0314

Sequence	PBM E-score
GATACCTA	-0.145
ATTTCGCC	0.12
CGTTTCTA	-0.0418
GCTTCTCC	-0.0574
TTCGCCAA	-0.127
CTGGTACC	0.159
ATGCGGAC	0.245
CGTCAATA	0.113
ACAGTGAC	-0.117
CATCGGCG	0.268
AGACTCGA	-0.192
ATTTGGCG	-0.108
GGTACCAC	0.157
ATAGTACC	0.359
GCATAAGA	-0.00893
CTCGGCTA	-0.056
CTCTGGAC	-0.058
AATACCAC	-0.0051
ATTGCCAG	-0.202
AGCACTGC	-0.218
AAGTCAGC	-0.101
AATTTCGG	0.14
ACTGTCCT	-0.215
AAATTTTG	-0.0242
CTAATCCA	-0.106

Sequence	PBM E-score
GAACTATC	0.0192
CAGAACCG	0.0722
TAGCCCAA	-0.142
GTGCACAC	-0.233
CAACAAAC	0.0347
ACACTCTG	-0.123
ATAGCGCG	0.0127
ACTCTGCG	-0.139
CCGCCACC	0.28
AGTTTTAA	0.159
AGGCTACG	-0.137
GCGCGAAA	0.0664
ACCGAACG	0.308
CCTAAACG	0.0805
GCTCCCTA	-0.317
GCTCGGAA	-0.0356
GTAAAAAC	0.0659
AGCTGTGG	-0.0912
CGCTGTTC	0.0181
CTGTTTGA	-0.104
GACTTCGC	0.0143
CCCTAGAC	-0.138
AGTCCCTG	-0.203
AATGTAGG	-0.114
CAGAACAC	-0.0868

Sequence	PBM E-score
TAACTCTA	-0.0643
GCGCTAGA	0.112
TCGCTAGA	-0.243
AAGGTTCA	-0.164
TGGCTTAA	-0.044
AGCACAGC	-0.0764
AAGAGTAT	-0.239
TTGGCCAA	-0.107
AGGCCGAC	0.406
CAAATCCC	0.194
AACAGGCT	-0.224
CACAAGAC	-0.161
CATATCCA	-0.193
CTGTCCGA	0.201
ATGGATCA	-0.0964
CCTGTGGC	-0.0876
AAGCCTGG	-0.0397
CTAGTGAA	-0.0467
ATCCCCAC	0.0244
ATGTCTTC	-0.142
CCAGGGAC	-0.161
ACCCAAAC	-0.0514
